# Results as given in PubChem BioAssay AID2528 (National Center for Advancing Translational Sciences (NCATS), 2010).
# Out of some 350,000 compounds screened, about 700 (0.2%) were called active. Inconclusive results, whose numbers are uncertain, are shown with a selection of clear calls. The call rests on the fitted dose curve; in most records, active means well fitted inhibition curve with a large enough effect; inconclusive means small, poorly fitted or top-dose-only effect; inactive means flat fitted curve, though single readings scatter. Potencies of inconclusive entries are left out as doubtful fits. Some compounds were tested as several samples or in several runs, with calls that do not always agree. Bridge positions count the residues as written; N and C are the ends. Square brackets hold non-standard residues; d marks the D form. Peptide text beside a SMILES is read from it. * marks the point of attachment. ξ: configuration not given here. Octanoyl(6-Me) = CCC(C)CCCCC(=O)*; ξThr(3R) = C[C@@H](O)C(N)C(=O)O; dDab = NCC[C@@H](N)C(=O)O; Dab = NCC[C@H](N)C(=O)O
# Target: RecQ-like DNA helicase BLM (Homo sapiens) (UniProt P54132)
# Sequence of UniProt P54132 (P54132 whole entry, looked up): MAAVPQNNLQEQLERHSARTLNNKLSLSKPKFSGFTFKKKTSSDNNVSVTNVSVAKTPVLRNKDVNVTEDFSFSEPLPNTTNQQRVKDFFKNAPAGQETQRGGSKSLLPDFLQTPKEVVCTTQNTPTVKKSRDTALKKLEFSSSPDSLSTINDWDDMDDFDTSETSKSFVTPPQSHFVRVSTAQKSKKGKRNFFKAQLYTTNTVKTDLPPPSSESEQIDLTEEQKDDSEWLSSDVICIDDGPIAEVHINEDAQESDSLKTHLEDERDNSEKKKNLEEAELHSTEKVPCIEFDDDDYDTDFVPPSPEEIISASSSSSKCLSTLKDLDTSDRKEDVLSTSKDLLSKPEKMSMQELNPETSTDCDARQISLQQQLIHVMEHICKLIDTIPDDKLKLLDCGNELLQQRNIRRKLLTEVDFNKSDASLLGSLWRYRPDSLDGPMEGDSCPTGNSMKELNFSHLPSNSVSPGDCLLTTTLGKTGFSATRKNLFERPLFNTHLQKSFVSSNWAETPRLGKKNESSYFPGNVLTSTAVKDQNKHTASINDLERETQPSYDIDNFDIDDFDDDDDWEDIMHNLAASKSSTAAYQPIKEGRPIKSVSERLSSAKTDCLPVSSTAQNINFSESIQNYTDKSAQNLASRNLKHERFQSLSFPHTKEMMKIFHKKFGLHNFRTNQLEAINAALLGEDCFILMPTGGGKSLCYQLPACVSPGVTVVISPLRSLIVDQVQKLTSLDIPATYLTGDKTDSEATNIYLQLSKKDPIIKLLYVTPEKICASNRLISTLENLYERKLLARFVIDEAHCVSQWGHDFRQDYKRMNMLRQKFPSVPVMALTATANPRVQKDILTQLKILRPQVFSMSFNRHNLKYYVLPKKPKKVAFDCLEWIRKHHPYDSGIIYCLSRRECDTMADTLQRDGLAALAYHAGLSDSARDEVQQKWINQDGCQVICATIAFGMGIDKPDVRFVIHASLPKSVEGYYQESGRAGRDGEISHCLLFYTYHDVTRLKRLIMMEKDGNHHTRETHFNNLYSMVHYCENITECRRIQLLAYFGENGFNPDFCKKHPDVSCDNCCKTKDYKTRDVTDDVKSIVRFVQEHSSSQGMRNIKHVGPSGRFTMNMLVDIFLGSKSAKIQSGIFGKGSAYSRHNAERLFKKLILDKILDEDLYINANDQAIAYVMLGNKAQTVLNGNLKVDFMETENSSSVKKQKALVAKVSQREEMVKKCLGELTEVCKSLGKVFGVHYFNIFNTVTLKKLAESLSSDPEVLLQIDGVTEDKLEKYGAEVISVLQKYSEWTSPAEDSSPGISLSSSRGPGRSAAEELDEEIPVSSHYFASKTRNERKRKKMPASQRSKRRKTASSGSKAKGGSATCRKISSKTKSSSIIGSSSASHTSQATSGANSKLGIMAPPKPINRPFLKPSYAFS
# Assay: qHTS Assay for Inhibitors of Bloom's syndrome helicase (BLM); further: nearly all actives have a fitted effect of over 35% in size
# Settings: recombinant BLM DNA unwinding, fluorescence dequenching; series mostly up to 56.1 µM
# Potency means the concentration at half of the fitted maximal effect; tags describe the fitted curve by direction and shape.
row,SMILES,Potency
1,Cn1c(=O)c(C(=O)COC(=O)c2cc(-c3ccco3)nc3ccccc23)c(N)n(Cc2ccccc2)c1=O,"inconclusive [inhibitor, partial curve]"
2,O=C(O)c1cccc(Cn2c(Cl)c(/C=N/Nc3ccccc3)sc2=O)c1,"inconclusive [inhibitor, single point]"
3,CC1=C(C#N)C(=O)N(C2CCS(=O)(=O)C2)C(=O)/C1=C\c1ccc(C)o1 (stereo not drawn),"inconclusive [inhibitor, single point]"
4,CCCCN1Cc2c(nc3cc(-c4ccco4)[nH]n3c2=O)C1=O,active: 17.8 µM
5,O=C(Nc1cccc(Cl)c1)c1c(NC(=O)C(F)(F)F)sc2c1CCCC2,"inconclusive [inhibitor, single point]"
6,Cc1ccc(-n2nc3c(=O)n(CC(=O)Nc4ccccc4F)nc(C)c3c2C)c(C)c1,inactive
7,CCn1c(SCC(=O)N/N=C/C=C/c2ccco2)nnc1-c1ccc(OC)cc1,"inconclusive [inhibitor, single point]"
8,COc1ccc(C2NC3=C(CCCC3)C(C#N)(C#N)C2(C#N)C#N)cc1 (stereo not drawn),"inconclusive [inhibitor, single point]"
9,COc1ccc(/C=C\C(=O)NCc2ccc3c(c2)cc(C)n3C)cc1OC,"inconclusive [inhibitor, single point]"
10,CN(CC(=O)NC(=O)NCc1ccco1)Cc1nc2ccccc2c(=O)[nH]1,"inconclusive [inhibitor, partial curve]"
11,COc1cc2c(C#N)c(N3CCCC3)nc(N)c2c(N)n1,"inconclusive [inhibitor, single point]"
12,CCC(=O)N1CCCc2cc(S(=O)(=O)NCc3cccs3)ccc21,inactive
13,Cc1cc(NS(=O)(=O)c2ccc(Nc3nc(-c4ccc(C)c(C)c4)cs3)cc2)no1,"inconclusive [inhibitor, partial curve]"
14,N#C/C(=C\c1ccc(N2CCOCC2)o1)c1nc2ccccc2[nH]1,active: 22.4 µM
15,CCN1CCN(C2=CC3=CC(=C(C#N)C#N)CCC3CC2)CC1 (stereo not drawn),"inconclusive [inhibitor, partial curve]"
16,O=C(O)c1cc(-c2ccc(/C=N/Nc3ccc([N+](=O)[O-])cn3)o2)ccc1Cl,"inconclusive [inhibitor, single point]"
17,Cc1ccc(NC(=O)CN2C(=O)S/C(=C\c3ccc(-c4cccc(C(=O)O)c4C)o3)C2=O)cc1C,"inconclusive [inhibitor, full curve, poor fit]"
18,CCC(C)CCCCC(=O)N[C@@H](CCN)C(=O)N[C@H](C(=O)N[C@@H](CCN)C(=O)N[C@H]1CCNC(=O)C([C@@H](C)O)NC(=O)[C@@H](CCN)NC(=O)[C@H](CCN)NC(=O)[C@H](CC(C)C)NC(=O)[C@@H](CC(C)C)NC(=O)[C@H](CCN)NC1=O)[C@@H](C)O (stereo partly drawn) ({Octanoyl(6-Me)}-[Dab]T[Dab][Dab][Dab][dL]L[Dab][dDab][ξThr(3R)]; lactam 4-C),"inconclusive [inhibitor, single point]"
19,N#C/C(=C\c1ccc(C(=O)O)cc1)c1nc2sc3c(c2c(=O)[nH]1)CCCC3,"inconclusive [inhibitor, partial curve]"
20,Cc1ccc(C)c(S(=O)(=O)Nc2cc(SCC(=O)O)c(O)c3ccccc23)c1,active: 15.8 µM
21,Nc1c(S(=O)(=O)O)cc(NC(=O)c2ccccc2)c2c1C(=O)c1ccccc1C2=O,"inconclusive [inhibitor, single point]"

row,SMILES,Potency
1,COc1ncnc2c1NC1=C(S2)C(=NCCC(=O)O)CC(C)(C)C1,"inconclusive [inhibitor, single point]"
2,COc1cccc(N=C2NC(=O)/C(=C/c3cc([N+](=O)[O-])ccc3O)S2)c1,inactive
3,COc1ccccc1NC(=O)CSc1nnc(CCC(=O)Nc2ccccc2F)n1C,inactive
4,Nc1ccc2nc(-c3cccc(-c4nc5ccc(N)cc5[nH]4)c3)[nH]c2c1,"inconclusive [inhibitor, single point]"
5,CCOc1ccc2nc(Cl)c(C3CC(c4ccc(C)cc4)=NN3C(=O)CCC(=O)O)cc2c1 (stereo not drawn),"inconclusive [inhibitor, single point]"
6,O=[N+]([O-])c1cc(Cl)cc(/C=N/NC(=S)Nc2cc(S(=O)(=O)N3CCOCC3)ccc2Cl)c1O,"inconclusive [inhibitor, partial curve]"
7,O=C(CCCN1C(=O)/C(=C\c2ccco2)SC1=S)Nc1cccc2ccccc12,"inconclusive [inhibitor, partial curve]"
8,Nc1nnc(CC(=O)N/N=C/c2ccc(-c3ccccc3Cl)o2)s1,inactive
9,O=c1ncccn1[C@@H]1O[C@H](CO)[C@@H](O)[C@H]1O,inactive
10,N/C(Cc1cccc2ccccc12)=N\OC(=O)Cc1cccs1,"inconclusive [inhibitor, partial curve]"
11,O=C(Cn1cnc2sc(-c3ccccc3)cc2c1=O)NCc1ccco1,active: 17.8 µM
12,S=C(Nc1ccc2nsnc2c1)NC1CCCCC1,active: 12.6 µM
13,O=C(CCN1C(=O)/C(=C/C=C/c2ccccc2)SC1=S)Nc1cccnc1,"inconclusive [inhibitor, single point]"
14,CCCC[n+]1c(C)sc2cc(OC)ccc21,inactive
15,Cc1c(C(=O)Nc2ccccc2)sc2nc[nH]c(=O)c12,"inconclusive [inhibitor, single point]"
16,CC(/C=N/NC(=O)CSc1nnc(SCc2ccccc2)s1)=C\c1ccco1,"inconclusive [inhibitor, partial curve]"
17,CC(C)N1CCc2c(sc(NC(=O)c3cc4cc([N+](=O)[O-])ccc4s3)c2C(N)=O)C1,"inconclusive [inhibitor, single point]"
18,CCOc1ccccc1NC(=O)C(NCCc1ccc(OC)cc1)c1ccccc1 (stereo not drawn),"inconclusive [inhibitor, single point]"
19,CCCC[C@@H]1C[C@H]1[C@@H](NP(=O)(c1ccccc1)c1ccccc1)c1ccccc1OC,inactive
20,Cc1ccc2occ(CC(=O)Nc3ccc(Cl)c(C(F)(F)F)c3)c2c1,inactive
21,CCOC(=O)C1=C(CC)Nc2ccccc2N/C1=N\S(=O)(=O)c1cc(Br)ccc1Br,"inconclusive [inhibitor, single point]"

row,SMILES,Potency
1,O=S(=O)(Nc1cc2nc3ccccc3nc2n1Cc1ccccc1)c1ccc(Cl)cc1,active: 5.01 µM
2,CCCOC(=O)c1sc2nc3c(cc2c1N)C(=O)CCC3,inactive
3,C=CCSC1=N/C(=C\C=C\c2ccco2)C(=O)S1,"inconclusive [inhibitor, single point]"
4,O=c1c(-c2cccs2)nc2cnc(N3CCNCC3)nc2n1Cc1cccs1,"inconclusive [inhibitor, partial curve]"
5,Nc1ccc(N2CCCCC2)c2nonc12,active: 22.4 µM
6,O=C(Nc1cccc(C(=O)O)c1)/C(=C/c1ccc2c(c1)OCO2)NC(=O)c1cccc(Br)c1,"inconclusive [inhibitor, single point]"
7,CCc1ccc(C(=O)c2cn(CC(=O)Nc3cccc(OC)c3)c3ccc(OC)cc3c2=O)cc1,active: 20 µM
8,CCOc1ccc(C(=O)c2cn(CC(=O)Nc3ccc(OC)cc3)c3cc4c(cc3c2=O)OCCO4)cc1,"inconclusive [inhibitor, partial curve]"
9,O=C1C=C(Nc2ccccc2O)c2ccccc2C1=O,"inconclusive [inhibitor, single point]"
10,COc1ccc(C(CC(=O)N2CCOCC2)c2c(OC)cc(OC)c3c(-c4ccccc4)cc(=O)oc23)cc1 (stereo not drawn),active: 22.4 µM
11,COc1ccc(N(CC(=O)NCCSCc2ccco2)S(=O)(=O)c2ccccc2)cc1OC,"inconclusive [inhibitor, partial curve, poor fit]"
12,COc1cc(OC)cc(C(=O)Nc2nnc(NC(=S)Nc3ccccc3)s2)c1,"inconclusive [inhibitor, single point]"
13,COc1ccc(NC(=O)CSc2nc(NS(=O)(=O)c3ccc(C)cc3)cc(=O)[nH]2)cc1,active: 22.4 µM
14,O=C(O)CN1C(=O)/C(=C\c2cc(Br)ccc2OCc2ccccc2Cl)SC1=S,"inconclusive [inhibitor, single point]"
15,O=C1NC(=O)/C(=C/c2ccccc2OCc2ccccc2)S1,"inconclusive [inhibitor, single point]"
16,CCOc1ccc(/C=C2\SC(=S)N(CCC(=O)Nc3ccccc3C(=O)O)C2=O)cc1,"inconclusive [inhibitor, partial curve, poor fit]"
17,COc1ccccc1CN(C(=O)CCl)C(C(=O)NC1CCCCC1)c1ccncc1 (stereo not drawn),"inconclusive [inhibitor, partial curve]"
18,Nc1cc(-c2ccco2)no1,"inconclusive [inhibitor, partial curve]"
19,COc1ccccc1CNC(=O)C1CCCN(S(=O)(=O)c2ccc3c(c2)oc(=O)n3C)C1 (stereo not drawn),inactive
20,Cn1c(=O)c2cc(NCc3ccccc3)nnc2n(C)c1=O,"inconclusive [inhibitor, single point]"
21,O=C(O)C(c1ccccc1)N1C(=O)/C(=C\c2ccc(-c3ccccc3Cl)o2)SC1=S (stereo not drawn),"inconclusive [inhibitor, single point]"
